Data published in PubChem BioAssay AID1347165 (National Center for Advancing Translational Sciences (NCATS), 2019).
The whole screen tested about 220,000 compounds, of which about 5,700 (2.6%) were called active. This list was built around the results that the source calls inconclusive (neither active nor inactive); the mix of calls is not that of the screen. Calls come from the whole dose curve; as a rule, active = well fitted inhibition curve with a large enough effect; inconclusive = small, poorly fitted or top-dose-only effect; inactive = no such curve, though single readings can be large or run the other way. Potencies of inconclusive entries are doubtful fits and often do not repeat.

Target: Lysine-specific demethylase 5B (Homo sapiens) (UniProt Q9UGL1)
Assay: Primary screen for KDM5B Histone Demethylases FDH-coupled qHTS; note: nearly all actives have a fitted effect of over 70% in size; for activity change, negative = inhibition: 0% is about no effect
Details: FDH-coupled NADH fluorescence (FDH is formaldehyde dehydrogenase); activity change, negative = inhibition: at 57.7 µM (top of the series) unless noted
Outline: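 Coupled FDH/NAD⁺ fluorescence readout. KDM5BΔAP 200 nM final; compound titration, 10 min RT preincubation; substrate mix 12.5 µM H3K4me3, 25 µM 2-OG, 50 µM Fe(II), 100 µM ascorbate, 0.25 mM NAD⁺, 0.25 U/mL FDH; ΔRFU over 30 min.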
Potency is the fitted concentration of half-maximal effect; tags give direction and shape of the fitted curve.

Chain of UniProt Q9UGL1 (Q9UGL1 whole entry, looked up): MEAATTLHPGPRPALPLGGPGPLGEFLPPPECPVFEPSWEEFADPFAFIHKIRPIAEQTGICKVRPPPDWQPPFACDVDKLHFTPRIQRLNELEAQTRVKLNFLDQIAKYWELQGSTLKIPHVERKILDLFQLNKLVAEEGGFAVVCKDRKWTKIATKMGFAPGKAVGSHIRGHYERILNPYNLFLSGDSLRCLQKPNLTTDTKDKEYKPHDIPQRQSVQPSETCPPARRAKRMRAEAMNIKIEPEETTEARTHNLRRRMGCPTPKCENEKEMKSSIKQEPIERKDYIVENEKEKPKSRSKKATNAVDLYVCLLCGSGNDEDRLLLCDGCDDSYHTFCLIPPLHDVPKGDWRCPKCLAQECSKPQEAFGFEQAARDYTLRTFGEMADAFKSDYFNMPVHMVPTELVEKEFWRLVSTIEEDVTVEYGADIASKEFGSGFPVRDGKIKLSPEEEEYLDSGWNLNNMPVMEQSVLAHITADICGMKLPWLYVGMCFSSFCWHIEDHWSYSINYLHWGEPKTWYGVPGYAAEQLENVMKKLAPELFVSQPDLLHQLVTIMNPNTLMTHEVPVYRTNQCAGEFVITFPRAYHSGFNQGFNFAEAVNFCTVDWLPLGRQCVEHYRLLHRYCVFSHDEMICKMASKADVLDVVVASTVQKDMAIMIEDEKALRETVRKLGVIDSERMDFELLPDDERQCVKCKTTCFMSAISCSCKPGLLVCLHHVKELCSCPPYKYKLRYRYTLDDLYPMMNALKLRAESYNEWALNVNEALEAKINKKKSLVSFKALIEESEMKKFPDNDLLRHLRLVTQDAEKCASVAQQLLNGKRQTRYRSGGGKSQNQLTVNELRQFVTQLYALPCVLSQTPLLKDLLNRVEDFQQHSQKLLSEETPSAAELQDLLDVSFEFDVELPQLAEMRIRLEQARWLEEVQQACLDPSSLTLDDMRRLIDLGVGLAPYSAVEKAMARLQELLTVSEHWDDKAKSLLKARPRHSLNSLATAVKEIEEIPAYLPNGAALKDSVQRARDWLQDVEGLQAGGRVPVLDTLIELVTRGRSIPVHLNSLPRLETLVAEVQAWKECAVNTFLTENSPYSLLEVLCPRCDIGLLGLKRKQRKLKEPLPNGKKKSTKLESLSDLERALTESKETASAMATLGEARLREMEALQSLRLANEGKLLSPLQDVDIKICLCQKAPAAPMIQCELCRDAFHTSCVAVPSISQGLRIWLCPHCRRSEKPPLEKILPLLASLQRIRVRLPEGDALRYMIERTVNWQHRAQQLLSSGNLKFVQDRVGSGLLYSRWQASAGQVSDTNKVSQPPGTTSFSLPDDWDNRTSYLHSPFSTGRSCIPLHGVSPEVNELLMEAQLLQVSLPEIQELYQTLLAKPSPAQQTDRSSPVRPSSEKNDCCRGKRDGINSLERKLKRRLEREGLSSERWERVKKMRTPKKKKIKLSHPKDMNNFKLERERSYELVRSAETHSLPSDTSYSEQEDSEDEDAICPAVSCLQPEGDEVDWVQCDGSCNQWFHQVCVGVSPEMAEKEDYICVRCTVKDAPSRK

SMILES	Potency	activity change, negative = inhibition
Cc1ccc(NC(=O)CSc2nnc3[nH]c(=O)cc(-c4ccccc4)n23)cc1Cl	inconclusive: 22.4 µM [inhibitor, partial curve, poor fit]	
COCCCNC(=O)c1cn(CCOC)c(=O)c2c1c1ccccc1n2C	inconclusive: 28.2 µM [inhibitor, partial curve, poor fit]	
CC(=O)N/N=C/c1cc(Cl)ccc1OCCCOc1ccc(C)cc1C		inactive: 15.7%
Cc1ccc2oc(N3CCN(C(=O)c4cccc(C#N)c4)CC3)nc2n1		inactive: -9.59%
COc1ccc(-c2nc(C)nc3c2CCN(Cc2cc(C)on2)CC3)cc1	active: 20 µM	
O=C(Oc1ccc(Cl)cc1)c1cc2ccccc2oc1=O		inactive: -10.1%
Cn1nc(C(=O)Nc2ccc(Oc3ccccc3)cc2)c2ccccc2c1=O		inactive: 3.73%
COC(=O)C1CCN(Cc2cc(=O)oc3ccc(O)cc23)CC1		inactive: 0.229%
CC1CCCCN1Cc1nnc2cc(-c3nc(-c4ccccc4)no3)ccn12 (stereo not given)	inconclusive: 14.1 µM [inhibitor, partial curve, poor fit]	
C1CNC(CN2CCOCC2)C1 (stereo not given)		inactive: -11.8%
CC(C)CC(=O)NCc1cccs1		inactive: -12.1%
CC(C)c1ccc2oc(-c3ccc(NC(=O)c4cccc(Br)c4)cc3)nc2c1	inconclusive: 31.6 µM [inhibitor, partial curve, poor fit]	
O=C(CN1CCOCC1)Nc1ccc(NC(=O)c2nc(-c3ccccc3)n(-c3ccccc3)n2)cc1		inactive: 7%
Cc1[nH]n(-c2ccccc2)c(=O)c1C(=O)c1ccccc1	inconclusive: 39.8 µM [inhibitor, single point]	
CCn1cnnc1-c1nn(C)c2c1CN(C(=O)CCC(=O)N1CC(=O)Nc3ccccc31)CC2	active: 14.1 µM	
CN(C)C(=O)C1(c2cccc(Br)c2)CC1		inactive: -0.184%
Oc1ccc(-c2nc(-c3ccccc3)cs2)cc1	inconclusive: 39.8 µM [inhibitor, single point]	
CCc1ccc(CNCc2c(C(=O)O)n(Cc3ccc(C)cc3)c3cc(C)ccc23)cc1	inconclusive: 39.8 µM [inhibitor, single point]	
O=C(Cn1nnc(-c2ccccc2)n1)N1CCC(c2nc3ccccc3s2)CC1		inactive: -10.5%
COc1ccc(/C=N/Nc2nc(-c3cccnc3)nc3ccccc23)cc1OC	inconclusive: 25.1 µM [inhibitor, partial curve, poor fit]	
Cc1ccc(NC(=O)CN(C)C(=O)c2nc(-c3ccccc3)oc2C)cc1		inactive: 8.05%
COCCNC(=O)CN1CCN(c2cc(-c3nc4ccccc4s3)c3ccccc3n2)CC1		inactive: -13.6%
CCCCN(C)C(=O)C1CCN(C(=O)/C=C/c2c(Cl)cccc2Cl)CC1		inactive: 19.3%
Cc1cn2nc(C(=O)NCc3ccncc3)cc2c(N2CCSCC2)n1		inactive: -1060%
COCC(=O)N[C@H]1C[C@H]2C(=O)NC[C@@H](CCC(=O)N3CCN(c4ccccn4)CC3)N2C1	active: 25.1 µM	

SMILES	Potency	activity change, negative = inhibition
O=C(c1cccs1)N1CCC2(CC1)N=C(c1ccc(Cl)cc1)NO2	inconclusive: 20 µM [inhibitor, single point]	
COc1ccccc1NS(=O)(=O)c1cc(NC(=O)c2n[nH]c3ccccc23)ccc1Cl	inconclusive: 28.2 µM [inhibitor, single point]	
CC(C)CNC(=O)c1ccc2c(c1)NC(C)(COCC1CC1)CO2 (stereo not given)	active: 39.8 µM	
O=C(Nc1cccc(S(=O)(=O)N2CCCC2)c1)C1=COCCO1		inactive: -12.8%
Cc1cc(=O)n(CC(=O)Nc2ccc(Cl)cc2F)c(N(C)Cc2ccccc2)n1		inactive: -19.6%
COc1ccc(-c2cc(C(=O)O)c3cc(C)cc(C)c3n2)c(OC)c1		inactive: -14.3%
O=C(NCc1csc(-c2cnccn2)n1)C1NCCc2[nH]cnc21 (stereo not given)	active: 25.1 µM	
Cn1ncc2c(-c3ccc(Cl)cc3Cl)cc(C(=O)N3CCN(c4ncccn4)CC3)nc21	inconclusive: 89.1 µM [inhibitor, partial curve, poor fit]	
Cc1cccc(-n2nnnc2C2(Nc3ccccc3C)CCCC2)c1		inactive: 16%
CCC(CC)C(=O)N1CCC2(CC1)C(=O)N(CC)c1ccccc12		inactive: -9.43%
Cc1ccccc1Nc1nc(NCc2ccco2)nc2c1cnn2-c1ccccc1	inconclusive: 39.8 µM [inhibitor, single point]	
COC1CCN(c2ccc3nnc(-c4ccccn4)n3n2)CC1	inconclusive: 39.8 µM [inhibitor, single point]	
c1ccc(O[C@H]2COCCN(Cc3ccc(-c4ccccc4)cc3)C2)cc1	inconclusive: 35.5 µM [inhibitor, single point]	
COc1ccc(S(=O)(=O)N2C[C@@H]3C[C@H](C2)c2ccc(NC(=O)c4ccncc4)c(=O)n2C3)cc1		inactive: -20.2%
COCC(=O)NC1CCCc2c1[nH]c1ccc(F)cc21 (stereo not given)	inconclusive: 28.2 µM [inhibitor, partial curve, poor fit]	
C/C(=N\O)c1cccc(-n2cccc2)c1		inactive: -19.2%
Cc1c(C(=O)Nc2cccc(-c3nc4ccccc4s3)c2)oc2ccccc12	inconclusive: 2.24 µM [inhibitor, full curve, poor fit]	
O=C(NCCc1c[nH]c2ccccc12)c1cccc(F)c1		inactive: -9.12%
COc1cc(C(=O)Nc2ccc3oc(-c4ccccc4C)nc3c2)cc(OC)c1OC	inconclusive: 39.8 µM [inhibitor, single point]	
Cn1c(=O)c2c(ncn2CCNc2ccc(Cl)cc2)n(C)c1=O		inactive: 1.37%
Cc1ccc2cc(C(=O)NCc3ccco3)[nH]c2c1	inconclusive: 25.1 µM [inhibitor, single point]	
Cc1cccc(NC(=S)NN)c1		inactive: -8.55%
O=C(NCCn1cccc1-c1nc(-c2ccc3c(c2)OCO3)no1)c1ccc(F)cc1	inconclusive: 25.1 µM [inhibitor, partial curve, poor fit]	
C=CCN1CCN(c2nc3c(c(=O)[nH]c(=O)n3C)n2Cc2cc(C)ccc2C)CC1		inactive: 9.51%
CCOc1cc2c(cc1NC(=O)c1ccc(OC(C)C)cc1)OC(C)C2 (stereo not given)	inconclusive: 39.8 µM [inhibitor, single point]	

SMILES	Potency	activity change, negative = inhibition
O=C1CC(c2ccccc2)N(C(=O)C2CC2)CCCN(C(=O)c2n[nH]c3ccccc23)CCN1 (stereo not given)	inconclusive: 22.4 µM [inhibitor, partial curve, poor fit]	
Cc1cc(C)c(S(=O)(=O)c2nnn3c2nc(NC2CCCC2)c2ccccc23)c(C)c1	inconclusive: 2.82 µM [inhibitor, full curve, poor fit]	
CN1Cc2nnn(Cc3ccccc3)c2-c2cc(N3CCCC3)ccc2S1(=O)=O	inconclusive: 31.6 µM [inhibitor, partial curve, poor fit]	
Cn1ccnc1CN1CCN(c2nccc(-c3ccccn3)n2)CC1	inconclusive: 35.5 µM [inhibitor, partial curve, poor fit]	
COc1ccc(C2Nc3c(C)cc(C)cc3-c3cc(C)nn32)cc1O (stereo not given)	inconclusive: 28.2 µM [inhibitor, partial curve, poor fit]	
O=C(O)c1ccc(CS(=O)(=O)c2ccccc2)cc1		inactive: 15.6%
COc1ccc(C2(C(=O)N3CCN4CCS(=O)(=O)N(C5CC5)C(=O)C4C3)CC2)cc1 (stereo not given)	inconclusive: 25.1 µM [inhibitor, single point]	
CC(C)N(C)CC1CCN(C(=O)NCCc2ccc(F)cc2)CC1		inactive: -9.26%
Cc1cccc(C(=O)N2c3nc(-c4ccco4)nn3C3(CCCCC3)[C@@H]3CCCC[C@@H]32)c1	inconclusive: 31.6 µM [inhibitor, single point]	
O=C(/C=C/c1cccs1)c1cc2ccccc2o1		inactive: -10.5%
Cc1cccc(-n2ncc3c(N4CCCC(C)C4)ncnc32)c1 (stereo not given)	inconclusive: 31.6 µM [inhibitor, single point]	
Cc1ccc(-c2ncc[nH]2)o1	inconclusive: 158 µM [inhibitor, partial curve, poor fit]	
O=C(NCc1ccccc1F)c1ccc2c(c1)CN(Cc1ccncc1)CCO2	inconclusive: 28.2 µM [inhibitor, partial curve, poor fit]	
Cc1ccc(CNC(=O)c2ccc3cc[nH]c3c2)cc1	inconclusive: 28.2 µM [inhibitor, partial curve, poor fit]	
Cc1ccc(Cn2ccnc2SCC(=O)Nc2nc3ccccc3s2)cc1	inconclusive: 17.8 µM [inhibitor, partial curve, poor fit]	
COC(=O)c1cccc(NC(=O)c2ccc3c(c2)N(C)C2CCCCN2C3=O)c1 (stereo not given)	inconclusive: 22.4 µM [inhibitor, partial curve, poor fit]	
COc1ccc2nc(CO[C@H]3CN(C4CCC4)C[C@H]3F)[nH]c2c1	inconclusive: 28.2 µM [inhibitor, partial curve]	
NC(=S)c1ccc(C(F)(F)F)cc1	inconclusive: 35.5 µM [inhibitor, partial curve, poor fit]	
Cc1nc2nc(SCC(=O)Nc3ccc(C(C)C)cc3)[nH]c2cc1Br		inactive: 9.43%
COC(=O)c1ccc(COc2ccccc2/C=C2\CCc3cc(OC)ccc3C2=O)cc1		inactive: 21.3%
CCc1ccc2nc(Nc3ncc(C(C)=O)c(C)n3)nc(C)c2c1	inconclusive: 39.8 µM [inhibitor, single point]	
COc1ccc(CN2CCCCC23Cc2ccccc2CNC3=O)c(OC)n1 (stereo not given)		inactive: 3.4% [at 115 µM]
COc1ccc(OC)c(NC(=O)Cn2ccc3cc(Cl)ccc32)c1		inactive: -22.4%
O=C1c2cnc(-c3cccc(C(F)(F)F)c3)nc2OCCN1Cc1ccccc1		inactive: -11.9% [at 86.2 µM]
COC(=O)[C@@H]1Cc2ncn(Cc3ccc(Cl)cc3)c2CN1Cc1ccc(NC(C)=O)cc1	inconclusive: 25.1 µM [inhibitor, single point]	
